Binding data for 6 molecules are collected here from PMC7511005.

Chains of the proteins cited; added tags and fusions are not shown.
UniProt Q9UNF0: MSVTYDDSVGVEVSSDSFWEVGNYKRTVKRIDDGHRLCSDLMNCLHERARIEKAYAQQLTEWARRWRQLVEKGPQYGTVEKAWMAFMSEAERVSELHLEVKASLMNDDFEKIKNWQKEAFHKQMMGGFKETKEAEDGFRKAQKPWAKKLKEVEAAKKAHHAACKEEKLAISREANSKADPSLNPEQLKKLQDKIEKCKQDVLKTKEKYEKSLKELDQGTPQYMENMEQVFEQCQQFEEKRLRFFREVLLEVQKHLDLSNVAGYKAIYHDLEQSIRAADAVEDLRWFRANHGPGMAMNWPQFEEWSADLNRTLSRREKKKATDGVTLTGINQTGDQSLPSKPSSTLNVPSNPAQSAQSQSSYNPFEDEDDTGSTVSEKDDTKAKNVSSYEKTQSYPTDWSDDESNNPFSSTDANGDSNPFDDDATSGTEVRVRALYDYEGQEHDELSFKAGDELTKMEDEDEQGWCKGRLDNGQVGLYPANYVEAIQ
UniProt Q8N3F8: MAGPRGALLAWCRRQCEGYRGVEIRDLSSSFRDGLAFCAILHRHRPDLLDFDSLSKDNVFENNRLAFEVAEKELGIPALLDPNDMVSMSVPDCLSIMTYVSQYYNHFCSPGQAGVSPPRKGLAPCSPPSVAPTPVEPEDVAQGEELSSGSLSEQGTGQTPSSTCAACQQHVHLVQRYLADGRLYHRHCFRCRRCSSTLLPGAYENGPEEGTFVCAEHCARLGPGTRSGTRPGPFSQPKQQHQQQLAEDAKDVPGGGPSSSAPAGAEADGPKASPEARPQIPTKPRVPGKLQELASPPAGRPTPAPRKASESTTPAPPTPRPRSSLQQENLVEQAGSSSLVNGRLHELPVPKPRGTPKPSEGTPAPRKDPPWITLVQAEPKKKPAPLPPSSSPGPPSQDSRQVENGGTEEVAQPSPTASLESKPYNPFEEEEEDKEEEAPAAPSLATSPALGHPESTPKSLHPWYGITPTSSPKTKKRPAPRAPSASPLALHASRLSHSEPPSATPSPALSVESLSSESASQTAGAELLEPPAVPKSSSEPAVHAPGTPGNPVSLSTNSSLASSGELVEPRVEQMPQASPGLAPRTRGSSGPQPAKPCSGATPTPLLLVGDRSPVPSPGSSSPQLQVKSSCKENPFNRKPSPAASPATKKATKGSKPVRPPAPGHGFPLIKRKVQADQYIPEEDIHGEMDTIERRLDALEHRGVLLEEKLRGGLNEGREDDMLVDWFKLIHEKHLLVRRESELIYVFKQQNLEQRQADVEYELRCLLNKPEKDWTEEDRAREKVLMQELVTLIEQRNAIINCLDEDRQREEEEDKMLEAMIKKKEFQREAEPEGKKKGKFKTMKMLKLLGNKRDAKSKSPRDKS

Where a chain is given by its changes, count along the chain named. Names and notes keep the numbering of the source. No constants are given. Whether binding was seen depends on the method and setting. For part of these data: In cells and extracts the contact can be indirect. Some results given as binding are weak or reduced against the parent protein; the word gives no strength. For part of these data: Where a sequence is shown, tags or fusion partners need not be part of it.

Assay [1] has as its target T1, EHD1, yeast two-hybrid fusion (UniProt Q9H4M9).
T1 sequence: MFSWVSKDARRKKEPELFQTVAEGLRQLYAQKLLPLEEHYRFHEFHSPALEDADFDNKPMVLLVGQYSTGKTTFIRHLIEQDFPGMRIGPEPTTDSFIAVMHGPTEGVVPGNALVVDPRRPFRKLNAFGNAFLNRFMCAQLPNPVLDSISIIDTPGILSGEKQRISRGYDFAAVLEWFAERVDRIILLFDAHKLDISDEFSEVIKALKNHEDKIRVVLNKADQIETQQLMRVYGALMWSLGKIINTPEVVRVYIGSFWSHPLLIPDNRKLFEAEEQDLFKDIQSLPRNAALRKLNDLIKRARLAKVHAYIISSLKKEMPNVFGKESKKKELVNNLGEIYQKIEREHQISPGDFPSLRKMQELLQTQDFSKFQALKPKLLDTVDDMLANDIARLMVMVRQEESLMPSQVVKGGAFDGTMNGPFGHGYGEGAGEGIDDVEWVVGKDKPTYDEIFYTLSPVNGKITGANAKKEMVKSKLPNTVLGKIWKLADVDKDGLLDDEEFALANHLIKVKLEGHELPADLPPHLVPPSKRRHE
Briefly: two-hybrid; AH109 yeast co-transformed with pGADT7 and pGBKT7 fusions; growth on -His plates, 30°C, 72 h.

Assay [2] addresses T2, EHD1 aa1-439, yeast two-hybrid fusion (UniProt Q9H4M9).
T2 sequence: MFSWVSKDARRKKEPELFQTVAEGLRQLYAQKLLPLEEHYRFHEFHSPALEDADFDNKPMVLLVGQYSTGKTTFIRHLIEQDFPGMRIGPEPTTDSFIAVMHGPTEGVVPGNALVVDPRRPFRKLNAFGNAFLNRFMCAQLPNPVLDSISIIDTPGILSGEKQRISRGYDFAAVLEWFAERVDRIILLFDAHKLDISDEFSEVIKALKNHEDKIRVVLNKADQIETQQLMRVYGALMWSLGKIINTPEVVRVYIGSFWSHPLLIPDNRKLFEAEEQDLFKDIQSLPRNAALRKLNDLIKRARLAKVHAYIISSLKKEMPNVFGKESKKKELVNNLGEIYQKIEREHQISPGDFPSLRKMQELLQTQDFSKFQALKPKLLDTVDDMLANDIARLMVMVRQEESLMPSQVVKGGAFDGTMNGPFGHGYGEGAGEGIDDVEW
Described as above.

For assay [3], the target named is Syndapin2, yeast two-hybrid fusion (UniProt Q9UNF0). Described as above.
Assay [4] concerns the target MICAL-L1, yeast two-hybrid fusion (UniProt Q8N3F8). The assay is described as above.
Assay [5] addresses T3, EHD1 V203P, yeast two-hybrid fusion (UniProt Q9H4M9).
T3 sequence: T1 sequence with V203P
Described as above.

Assay [6] has as its target T4, EHD1 aa1-199, yeast two-hybrid fusion (UniProt Q9H4M9).
T4 sequence: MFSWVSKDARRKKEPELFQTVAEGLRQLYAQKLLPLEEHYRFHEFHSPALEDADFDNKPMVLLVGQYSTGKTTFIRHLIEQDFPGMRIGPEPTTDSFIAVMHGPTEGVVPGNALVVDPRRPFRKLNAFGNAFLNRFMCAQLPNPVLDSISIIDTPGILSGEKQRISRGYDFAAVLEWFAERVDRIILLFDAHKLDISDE
The assay is described as above.

Assay [7] has as its target T5, EHD1 aa1-309, yeast two-hybrid fusion (UniProt Q9H4M9).
T5 sequence: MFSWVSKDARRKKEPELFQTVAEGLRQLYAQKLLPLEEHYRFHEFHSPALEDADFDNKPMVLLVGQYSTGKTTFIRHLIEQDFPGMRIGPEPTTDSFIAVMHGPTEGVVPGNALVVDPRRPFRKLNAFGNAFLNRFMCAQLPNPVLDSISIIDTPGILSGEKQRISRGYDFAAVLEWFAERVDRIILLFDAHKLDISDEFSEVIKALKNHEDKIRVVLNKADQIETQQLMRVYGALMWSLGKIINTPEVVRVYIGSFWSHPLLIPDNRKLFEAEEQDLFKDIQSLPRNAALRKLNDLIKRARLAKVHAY
Described as above.

Assay [8] has as its target T6, EHD1, endogenous in NIH3T3 cells (mouse (endogenous in NIH3T3)) (UniProt Q9WVK4).
T6 sequence: T1 sequence with P350S, V408A, V526I
As to the kind of experiment: co-IP; endogenous proteins in lysates of NIH3T3 parental cells and CRISPR/Cas9 EHD4 knock-out cells; anti-EHD1 coupled beads; blot with anti-Rabenosyn-5 and anti-EHD1; beads-only control.

Assay [9] has as its target T7, Eps15 Homology Domain Protein 1 (EHD1), endogenous in HeLa cells (human (endogenous in HeLa)) (UniProt Q9H4M9).
T7 sequence: T1 sequence
As to the kind of experiment: co-IP; endogenous proteins in HeLa lysate (50 mM Tris pH 7.4, 100 mM NaCl, 0.5% Triton X-100); rabbit anti-EHD1 overnight at 4°C, Protein G Sepharose; blot with anti-EHD4, stripped and reblotted with anti-EHD1; beads-only control.

B1: EHD1, yeast two-hybrid fusion (protein, UniProt Q9H4M9 1-534)
chain: T1 sequence
On to B1, for which the binding result in [1] is “binds”; in [2], “binds”; in assay [3], “binds”; in assay [4] it was “binds”; in [5] it was “binds”; in assay [6], “no binding”. Moreover, the binding result in assay [7] is “no binding”.

B2: Rabenosyn-5, endogenous in NIH3T3 cells (protein, UniProt Q80Y56 1-783)
chain: MASLDDPGEVREGFLCPLCLKDLQSFYQLQSHYEEEHLEDRDVKGQIKNLVQKARKAKNKLLKREGDDRVEPGTQGYESFSYGGVDPYMWEPQELGAMRSHLSDFKKHRAARIDHYVVEVNKLIIRLEKLTAFDRTNTETSKIRAIEKSVVPWVNDQDVPFCPDCGNKFSIRNRRHHCRLCGSIMCKKCMELIGLPLAHKLTSASKDSLSTHTSPSQSPNSVHGSRRGSISSMSSVSSVLDEKDDDRIRCCTHCKDKLLKREQQMDEKEHTPDIVKLYEKLRLCMEKVDQKAPEYIRMAASLNAGETTYNLEHANDLRVEVQKVYELIDALSKKILTLGLNQDPSPHPNTLRLQRMIRYSATLFVQEKLLGLMSLPTKEQFEELKKKRKQDLEQKRTVERQAALESRRKLEERQSGLASHTANGDVRSLRGIPPPLRKAEGWLPLSEGQGQSEDPDPLLQQIYNITSFIRQAKAAGRTDEVRTLQENLRQLQDEYDQQQTEKAIELSRKQAEEEELQREQLQMLRKRELEREQEQFLAASLQTRTRVLELREVIPFQLEASRGPHIDLSYSLDQDSSPVQSSTAPDILTPGSALAPMHLWSGPPALGQETLPQSTMSQQSDKASLNPFDEDDLSSPTEGAISPAAVEAFLGPPAAVTKEYNPFEEDAEEEEVAELGAGNPFTDPDSPAPNPFDEDDGPRPASPAAPGNPFEECPSTNPFEVDSDSGMEAEEHIEEELLLQQIDNIKAYIFDAKQCGRMDEVEVLTENLRELKCTLAKQKGAPN
In the case of B2, in assay [8], the binding entry is recorded as “binds”.

B3: Eps15 Homology Domain Protein 4 (EHD4), endogenous in HeLa cells (protein, UniProt Q9H223 1-541)
chain: MFSWMGRQAGGRERAGGADAVQTVTGGLRSLYLRKVLPLEEAYRFHEFHSPALEDADFENKPMILLVGQYSTGKTTFIRYLLEQDFPGMRIGPEPTTDSFIAVMYGETEGSTPGNALVVDPKKPFRKLSRFGNAFLNRFMCSQLPNQVLKSISVIDSPGILSGEKQRISRGYDFCQVLQWFAERVDRIILLFDAHKLDISDEFSEAIKAFRGQDDKIRVVLNKADQVDTQQLMRVYGALMWSLGKVINTPEVLRVYIGSFWAQPLQNTDNRRLFEAEAQDLFRDIQSLPQKAAVRKLNDLIKRARLAKVHAYIISYLKKEMPSVFGKENKKRELISRLPEIYIQLQREYQISAGDFPEVKAMQEQLENYDFTKFHSLKPKLIEAVDNMLSNKISPLMNLISQEETSTPTQLVQGGAFDGTTEGPFNQGYGEGAKEGADEEEWVVAKDKPVYDELFYTLSPINGKISGVNAKKEMVTSKLPNSVLGKIWKLADCDCDGMLDEEEFALAKHLIKIKLDGYELPSSLPPHLVPPSHRKSLPKAD
In the case of B3, the binding entry in [9] is listed as “binds”.

B4: EHD4 S523D, yeast two-hybrid fusion (protein, UniProt Q9H223 1-541)
chain: B3 chain with S523D
Take B4: in assay [4], the binding entry is given as “no binding”.

B5: EHD4 SS522AD, yeast two-hybrid fusion (protein, UniProt Q9H223 1-541)
chain: B3 chain with S522A, S523D
For the molecule B5, the binding entry in [4] is listed as “no binding”.

B6: EHD4 S522A, yeast two-hybrid fusion (protein, UniProt Q9H223 1-541)
chain: B3 chain with S522A
B6: the binding result in assay [4] is given as “no binding”.
